Laboratory results from the RNAGym collection of RNA variant scans (doi:10.7554/elife.90254).
The source gives no read counts; variants with many changes may rest on few reads.

B1: LINE1-full (parent)
chain: UACGUAGGUGGUUUUCCCCUGAUAGUGCUAAGGGGGCCUGGAAGUUUGGACUGGGCAGAGCUCAACACAGCGUGGCAAAGUGGCUGUGGCUAGACUGCCUCUCUGGAUUCCUCGUCACUCAGCAGGGCAUCUCUGAGAGAAAUGCC

Variants of: B1
Assay: self-cleavage, relative activity (ratio to wild type); higher = more cleavage; in vitro, sequencing; the parent is a self-cleaving ribozyme

Variant | self-cleavage
CACGUAGGUGGUUUUCCCCUGAUAGUGCUAAGGGGGCCCGGAAGUUCGGACCGGGCAGAGCUCAACACAGCGUGGCAAAGUGGCUGUGGCUAGACUGCCUCUCUGGAUUCCUCGUCACUCAGCAGGGCAUCUCUGAGAGAAAUGCC | 0
UACGUAGGUGGUGUUCCCCUGAUAGUGCUAAGGGGGCCUGGAAGUUUGGACUGGGCAGAGCUCAACACAGCGAGGCAAAGUGGCUGUGGCUAGACUGCCUCUCUGGAUUCCUUGCCACUCAGCAGGGCAUCUCUGAGAGAAAUGCC | 1.49
UACGUAGGUGGUUUUCCCCCGAUAGUGCUAAGGGGGCCAGGAAGUUUGGACUGGGCAGAGCUCAACACAGCGUGGCAAAGUGGCUGUGGCUAGACUGCCUCUCUGGAUUCCUCGUCACUCAGCAGGGCAUCUCUGAGAGAAAUGCU | 1.49
UACGUAGGCGGUUUUCCCCUGGUAGUGCUAAGGGGGCCUGGAAGUUUGGACCGGGCAGAGCUCAACACAGCGUGGCAAAGUGGCUGUGGCUAGACUGCCUCUCUGGAUUCCUCGUCACUCAGCAGGGCAUCUCUGAGAGAAAUGCC | 0.84
UACGUAGGUGGUUUUCCCCUGAUAGUGCUAAGGGGGCCUGGAAGUUUGGACUGGGCAGAGCUCAGCACAGCGUGGCAAAGUGGCUGUGGCUAGACUGGCUCUCUGGAUUCCUCGUCACUCAGCAGGUCAUCUCUGAGAGGAAUGCC | 0.03
UACGUAGGUGGUUUUCCCCUGAUAGUGCUAAGGGGGCCUGGAAGUUUGGACUGGGCAGAGCUCAACACAGCGUGGCAAAGUGGCCGUGGCUAGACUGCCCCUCUGGAUUCCUCGUCACUCAGCAGGGCAUCACUGAGAGAAAUGCC | 0.81
UACGUAGGUGGUUUUCCCCUGAUAGUGCUAAGGGGGCCUGGAAGUCUGGACUGGGCAGAGCUCAACACAGCGUGGCAAAGUGGCUGUGGCUAGGCUGCCUCUCUGGAUUCCUCGUCACUCAGCUGGGCAUCUCUGAGAGAAAUGCC | 0.25
UACGUAGGUGGUUUUCCCCUGAUAGUGCUAUGGGGGCCUGGAAGUUUGGACUGUGCGGAGCUCAACACAGCGUGGCAAAGUGGCUGUGGCUAGACUGCCUCUCUGGAUUCCUCGUCACUCAGCAGGGCAUCUCUGAGAGAAAUGCC | 0.35
UACGUAGGUGGUUUUCCCCUGGUAGUGCUAAGGGGGCCUGGAAGUUUGGACUGGGCAGAGCUCAACACAGCGUGGCAAAGUGGCUGUGGCUAGACUGCCUCUCUGGAUUCCUCGUCACUCAGCAGGGCAUUUCUGAGAGAAACGCC | 1.25
UACGUAGGUGGUUUUCCCCUGAUAGUGCUAAGGGGGCCUGGAAGUUUGGACUGGGCAGAGCUCAACACAGCGUGGCGAAGUGGCUGUGGCUAGACUGCCUCUCUGGAUUCCUCGUCACCCAGCAGGGCAUCUCUGAGAGGAAUGCC | 1.47
UACGUAGGUGGUUUUCCCCUGAUAGUGCUAAGGGGGCCUGGAUGUUUGGACUGGGCAGAGCUCAACACAGCGUGGCAAAGUGGCUGUGGCUAGACCGCCUCUCUGGAUUCCCCGUCACUCAGCCGGGCAUCUCUGAGAGAAAUGCC | 0
UACGUAGGCGGCUUUCCCCUGAUAGUGCUAAGGGGGCCUGGAAGUUUGGACUGGGCAGAGCUCAACACAGCGUGGCAGAGUGGCUGUGGCUAGACUGCCUCUCUGGAUUCCUCGUCACUCAGCAGGGCAUCUCUGAGAGAGAUGCC | 0.97
UACGUAGGUGGUUUACCCCUGAUAGUGCUAAGGGGGCCUGGAAGUUUGGACUGGGCAGAGCUCAACACAGCGUGGCAGAGUGGCUGUGGCUAGACUGCCUCUCUGGAUUCCUCGUCACUCAGCAGGGCAUCUCUGAGAGUAAUGCC | 1.03
UACGUAGGUGGUUUUCCCCUGAUAGUGCUAAGGGGGCCUGGAAGUUUGGACUGGGCAGAGCUCAACACAGCGUGGCUAAGUGGCUGUGGCUAGACUGCCUCUCUGGAUUCCCCGUCACUCAGCAGGGCAUCUCUGAGAGAAGUGCC | 1.03
UACGUAGGCGGUUUUCCCCUGAUAGCGCUAAGGGGGCCUGGAAGUUUGGACUGGGCAGAGCUCAACACAGCGUGGCAAAGUGGCUGUGGCUAGACUGCCUCUCUGGAUUCCUCGUCACUCAGCGGGGCAUCUCUGAGAGAAAUGCC | 0.56
UACGUAGGUGGUUUUCCCCUGAUAGUACUAAGGGGGCCUGGAAGUUUGGACAGGGCAGAGCUCAACACAGCUUGGCAAAGUGGCUGUGGCUAGACUGCCUCUCUGGAUUCCUCGUCACUCAGCAGGGCAUCUCUGAGAGAAAUGCC | 0.77
UACGUAGGAGGUUUUCCCCUGAUAGUGCUAAGGGGGCCUGGAAGUUUGGACUGGGCAGAGCUCAACGCAGCGUGGCAAAGUGGCUGUGGCUGGACUGCCUCUCUGGAUUCCACGUCACUCAGCAGGGCAUCUCUGAGAGUAAUGCC | 0.32
UACGUAGGUGGUUUUCCCCUGAUAGUGCCAAGGGGGCCUGGAAGUUUGGACUGGGCAGAGCUCAACACAGCGUGGCAAAGUGGCUGUGGCUAGACUGCCUCUCUGGAUUCCUCGUCACUCAGCAGGGCAUCUCUGUGAGAGAUGCC | 1.9
UACGUAGGUGGUUUUCCCCUGAUAGUGGUAAGGGGGCCUGGAAGUUUGGACUGGGCAGAGCUCAACACAGCGUGGCAAAGUGGCUGUGGCUAGACUGCCUCUCUGGAUUCCACGUCACUCAGCAGGGCAUCUCUGUGAGAAAUGCC | 1.51
UACGUAGGUGGUUUUCCCCUGAUAGUGCUAAGGGGGCCUGGAAGUUUGGACUGGGCGGAGCUCAACACAGCGUGGCAAAGUGGCUGUGGCUAGACUGCCUCUCUGGACUCCUCGUCACUCGGCAGGGCAUCUCUGAGGGAAAUGCC | 2.63

Variant | self-cleavage
UACGUAGGCGGUUUUCCCCUGAUAGUGCUAAGGGGGCCUGGAUGUUUGGACUGGGCAGAGCUCAACACAGCGUAGCUAAGUGGCCGUGGCUAGACUGCCUCUCCGGAUUCCUCGUCACUCAGCAGGGCAUCUCUGAGAGAAAUGCC | 0.18
UACGUAGGUGGUUCUCCCCUGAUAGUGCCAAGGGGGCCUGGAUGUUUGGACUGGGCAGAGCUCAACACAGCGUGGCAUAGCGGCUGUGGCUUGACUGCCUCUCUGGAUUCCUCGUCACUCAGCAGGGCAUCUCUGAGAGAAAUGCC | 1.17
UACGUAGGUGGUUUUCCCCUGAUAGUGCUAAGGGGGCCUGGAAGCUUGGACUGGGCAGAGCCCAACACAGCGUGGCAAAGUGGCUGUGGCUUGACUGCCUCUCUGGAUUCCUCGUCACUCAGCAGGGCAUCUCUGAGAGAAAUGCC | 0.11
UACGUAGGUGGUUUUCCCCUGAUAGUGCUAAGGGGGCCUGGAAGUUUGGACUGGGCAGAGCUCAACGCGGCGUGGCAAAGUGGCUGUGGCUAGACUGCCUCUCUGGAUUCCUCGUCACUCAGCAGGACAUCUCUGAGAGAAAUGCC | 0.06
UACGUAGUUGGUUUUCCCCUGAUAGUGCUAAGGGGGCCUGGAAGUUUGGGCUGGGCAGAGCUCAACACAGCGUGGCAAAGUGGCUGUGGCUAGACUGCCUCUCUGGAUUCCUCGUCACUCAGCAGGGCAUCUCUGAGAGAGAUGCC | 1.6
UACGUAGGUGGUUUUCCCCUGAUAGUGCUAAGGGGGCCUGGGAGUUUGGACUGGGCGGAGCUCAACACAGCGUGGCAAAGUGGCUGUGGCUAGACUGCCUCUCUGGAUUCCUCGUCACCCAACAGGGCAUCUCUGAGAGAAAUGCC | 1.31
UACGUAGGUGGUUUUCCCCUGAUAGUGCUAAGGGGGCCUGGAAGUUUGGACUGGGCAGAGCUCAACACAGCGUGGCAAAGUGGCAGUGGCUAGACUGCCUCUCUGGAUUCCUCGUCACCCAGCAGGGCAUCUCUGAGUGAAAUGCC | 0.13
UACGUAGGUGGUUUUCCCCUGAUAGUGCUAAGGGGGCCUGGAAGUUUGGGCUGGGCAGAGCUCAACACAGCGUGGCAAAGUGGCUGUGGCUAGACUGCCUCUCUGGAUUCCUCGUCACUCGGCAUGGCAUCCCUGAGAGAAAUGCC | 1.31
UACGUAGGUGGUCUUCCCCUGAUAGUGCUAAGGGGGCCUGGAAGUUUGGACUGGGCAGAGCUCAACUCAGCGUGGCAAAGUGGCUGUGGCUAGACUGCCUCUCUGGAUUCCUCGUCACUCAGCAGGGCAUCUCUGAGGGAAAUGCC | 0.04
UACGUAGGUGGUCUUCCCCUGAUGGUGCUAAGGGGGCCUGGAAGUUUGGACUGGGCAGAGCUCAACACAGCGUGGCAAAGUGGCUGUGGCUAGACUGCCUCUUUGGAUUCCUCGUCACUCAGCAGGGCAUCUCUGAGAGAAAUGCC | 1.41
UACGUAGGUGGUUUUUCCCUGAUAGUGCUAAGGGGGCCUGGAAGUUUGGACUGGGCAGAGCUCAACACAGCGUGGCAAAGUGGCUGUGGCUAGACUGCCUCUCUGGAUUCCUCGUCACUCAGCUGGGCAUCUCUGAGGGAAAUGCC | 1.3
UACAUAGGUGGUUUUCCCCUGAUAGUGCUAAGGGGGCCUGGAAGUUUGGACUGGGCAGAGCUCAACACAGCGUGGCAAAGUGGCUGUGGCUAGACUGCCUCUCUGGAUUCCUCGUCAUUCAGCAGGGCAUCUCCGAGAGAAAUGCC | 1.19
UACGUAGGUGGUUUUCCCCUGAUAGUGCUAAGGGGGCCUGGAAGUUUGGACUGGGCAGAGCUCAACACAGCGUGGCAAAGUGGCUGUGGCUAGACUGCCUCUCUGGACUCCUCGUCACUCAGCAGGGCAUCUCUGAGGGAGAUGCC | 0.15
UACGUAGGUGGUUUUCCCCUGAAAGUGCUAAGGGGGCCUGGAAGUUUGGGCUGGGCAGAGCUCAACACAGCGUGGCAAAGUGGCUGUGGCUAGACUGCCUCUCAGGAUUCCCCGUCACUCAGCAGGGCAUCUCUGGGAGAAAUGCC | 1.25
UACGUAGGUGGUUUUCCCCCGAUAGUGCUAAGGGGGCCUGGAAGUUUGGACUGGGCAGAGCCCAACACAGCGAGGCAAAGUGGCUGUGGCUAGACUGCCUCUCUGGAUUCCUCGUCACUCUGCAGGGCAUCUCUGAGAGAAAUGCC | 0.06
UACGUAGGUGGUUUUCCCCUGAUAGUGCUAAGGGGGCCUGGAAGUUUGGACUGGGCAGAGCUCAACACAGCGUGGCAAAGUGGCUGUGGCUAGGCUGCCUCUCUGGAUUCCCCGUCACUCAGCAGGGCAUCUCUGAGAGAAAAGCC | 0.25
UACGUAGGUGGUUUUCCCCUGAUAGUGCUAAGGGGGCCCGGAAGUUUGGACUGGGCAGAGCUCAACACAGCGUGGCAAAGUGGCUGUGGCUAGACUGCCCCUCUGGAUUCCUCGUCACUCAGCAGGACAACUCUGAGAGAAAUGCC | 2.25
UACGUAGGUGGUUUUCCCCCGAUAGUGCUAAGGGGGCCUGGAAGUUUGGACUGGGCAGAGCUCAACACAGCGUGGCAGAGUGGCUGAGGCUAGACUGCCUCUCUGGAUUCCUCGUCACUCAGCAGGGCAUCUCUGAGAGAAAUGCC | 0.07
UACGUAGGUGGUCUUCCCCUGAUAGUGCUAAGGGGGCCUGGAAGUUUGGACUGGGCAGAGCUCAACACAGCGUGGCAAAGUGGCUGUGGCUAGACUGCCUCUCUGGAUUCCUCGUCACUCAGCAGGGCAUCUCUGGGAGAGAUGCC | 2.35
